# Measured values taken from article PMC4336329 (PLoS ONE, 2015).
# The whole screen tested about 310,000 compounds, of which about 14,000 (4.5%) showed an effect of 50% or more. The effect is printed as a negative number. This is one part of the list.
# Biological target: human ether-à-go-go-related gene (hERG) potassium channel (human, UniProt Q12809)
# Experiment: primary screen, population patch clamp on CHO cells stably expressing hERG
# 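Further: peak tail current of the secondary pulse compared with the same well before compound.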
# Sequence of human ether-à-go-go-related gene (hERG) potassium channel (Q12809 whole entry, looked up): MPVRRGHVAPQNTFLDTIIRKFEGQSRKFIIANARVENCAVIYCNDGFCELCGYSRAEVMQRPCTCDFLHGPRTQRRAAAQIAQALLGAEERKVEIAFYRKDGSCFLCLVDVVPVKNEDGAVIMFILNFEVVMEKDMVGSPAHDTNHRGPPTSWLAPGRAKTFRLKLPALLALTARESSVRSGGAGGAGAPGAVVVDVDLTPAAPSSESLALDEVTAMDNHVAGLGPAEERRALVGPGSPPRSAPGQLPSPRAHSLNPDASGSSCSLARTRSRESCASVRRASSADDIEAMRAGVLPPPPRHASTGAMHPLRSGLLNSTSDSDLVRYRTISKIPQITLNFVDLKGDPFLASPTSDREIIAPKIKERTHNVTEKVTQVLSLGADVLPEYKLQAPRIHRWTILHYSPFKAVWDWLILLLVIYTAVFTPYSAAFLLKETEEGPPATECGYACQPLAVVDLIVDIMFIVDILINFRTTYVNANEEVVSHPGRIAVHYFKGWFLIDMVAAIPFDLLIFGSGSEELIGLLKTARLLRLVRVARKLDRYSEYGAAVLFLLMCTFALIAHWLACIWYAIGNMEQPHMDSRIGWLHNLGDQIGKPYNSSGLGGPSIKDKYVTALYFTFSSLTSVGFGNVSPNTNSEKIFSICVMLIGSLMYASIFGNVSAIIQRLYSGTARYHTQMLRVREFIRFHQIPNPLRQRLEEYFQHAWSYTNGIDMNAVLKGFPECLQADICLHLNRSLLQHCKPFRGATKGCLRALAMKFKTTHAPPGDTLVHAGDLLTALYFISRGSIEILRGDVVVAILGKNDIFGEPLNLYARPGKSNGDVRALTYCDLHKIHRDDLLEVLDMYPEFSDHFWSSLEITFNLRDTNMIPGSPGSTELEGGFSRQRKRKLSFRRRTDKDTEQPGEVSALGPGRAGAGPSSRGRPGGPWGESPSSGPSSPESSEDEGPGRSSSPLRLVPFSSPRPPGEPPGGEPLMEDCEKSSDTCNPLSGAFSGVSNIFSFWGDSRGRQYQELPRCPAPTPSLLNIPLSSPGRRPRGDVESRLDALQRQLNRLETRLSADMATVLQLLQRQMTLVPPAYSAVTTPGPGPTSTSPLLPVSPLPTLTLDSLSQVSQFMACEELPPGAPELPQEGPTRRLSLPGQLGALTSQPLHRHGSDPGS
row,Compound,"hERG current change (%, negative = inhibition) at 10uM"
1,CC1S/C(=N\N=C\c2cccc([N+](=O)[O-])c2)N(C(C)(C)C)C1=O (centres unmarked),11.4%
2,Cc1ccc(OCCC(=O)OCC(=O)NC(=O)NCc2ccccc2)cc1,3.82%
3,CCC(CC)c1nnc(NC(=O)c2c(C)nn(Cc3ccccc3Cl)c2C)s1,2.87%
4,COc1ccc(S(=O)(=O)NCCCCC(=O)O)cc1C(=O)O,-0.701%
5,COC(=O)c1sc(NC(=S)NC(=O)c2ccc(C)cc2)nc1C,14%
6,CC(=O)N1c2ccccc2-c2nc3ccccc3n2C1C (centres unmarked),-1.08%
7,Cc1cccc(N2C(=O)CC(N3CCN(c4ccc(Cl)cc4)CC3)C2=O)c1 (centres unmarked),7.61%
8,COc1ccc(CCNC(=O)c2cc(-c3ccccn3)nc3c(Cl)cccc23)cc1OC,10.5%
9,O=C(Cc1cccc(NC(=O)C2CCN(C(=O)C3CCCC3)CC2)c1)Nc1cccc(C(=O)N2CCCC2)c1,10.9%
10,Br.COCCCN1Cc2ccccc2C1=N,-12.4%
11,COc1ccccc1OCC(=O)N(Cc1nc(-c2ccccc2)no1)C(C)C,-12%
12,COc1ccc(C=O)cc1CSc1nnc(COc2cccc3cccnc23)o1,-1.44%
13,COc1ccc(/C(C)=N/OCC(=O)Nc2nc3ccccc3s2)cc1,-3.03%
14,COc1ccccc1CN1CC(C(=O)N(CCO)Cc2cccs2)CCC1=O (centres unmarked),10.1%
15,Cc1ccc2cccc(S(=O)(=O)n3nc(C)cc3C)c2n1,-11.7%
16,Cc1ccc(NC(=O)COc2ccccc2C#N)cc1S(=O)(=O)N1CCCCCC1,-23.3%
17,O=C(COC(=O)/C=C/c1ccc(Br)o1)Nc1ccccc1F,-13%
18,Cc1cc(C)cc(NC(=O)Nc2cccnc2)c1,10.9%
19,CC1CCN(C(=O)c2ccc(N3C(=O)c4ccccc4C3=O)cc2)CC1,8.06%
20,CCc1nnc(SCc2cn3c(C)cc(C)nc3n2)n1N,13.5%
21,O=C(Nc1ccc(F)cc1)C1C2CCC3C(CCC21)C3(Cl)Cl (centres unmarked),20%
22,CCCN(C(=O)CCCSc1nc2ccccc2[nH]1)c1c(N)n(Cc2ccccc2)c(=O)[nH]c1=O,8.76%

row,Compound,"hERG current change (%, negative = inhibition) at 10uM"
1,Cc1cccc(C(=O)Oc2cccc3c(O)cccc23)c1,19.2%
2,Cc1ccccc1-c1ccc(C(=O)Nc2cccc(F)c2)o1,-18.3%
3,COc1ccc(NC(=O)c2cc(-c3cc(Cl)ccc3O)n[nH]2)c(OC)c1,18.5%
4,Cc1ccc(S(=O)(=O)c2nnn3c2nc(N2CCOCC2)c2ccccc23)cc1,-2.95%
5,O=C(O)C1C2C=CC(C2)C1C(=O)NCCCc1ccccc1 (centres unmarked),1.48%
6,COc1ccc(Cl)cc1C(=O)Nc1cc(=O)n(C)c(=O)n1C,-3.64%
7,CC(NC(=O)c1ccc(N2CCCC2)c([N+](=O)[O-])c1)c1ccc(S(N)(=O)=O)cc1 (centres unmarked),-5.02%
8,O=C(Nc1cnn(Cc2ccc(F)cc2)c1)c1cc2nc(-c3ccco3)cc(C(F)(F)F)n2n1,17.5%
9,COc1cccc(NC(=O)CN(C)C(=O)c2c(-c3c(F)cccc3Cl)noc2C)c1,0.173%
10,CCCCc1cc(=O)oc2cc(OCC(=O)NCc3ccccn3)c(Cl)cc12,18%
11,CCOC(=O)C1=C(COC(=O)CNC(=O)c2ccc(C)cc2)NC(=O)NC1C (centres unmarked),23.4%
12,Cc1cc(CSc2ccccc2)ccc1NC(=O)c1ccc(C)c([N+](=O)[O-])c1,11.6%
13,c1cnc2ccc(C(c3nnnn3C3CCCC3)N3CCN4CCCC4C3)cc2c1 (centres unmarked),-45.2%
14,COc1ccc(-c2cn(CCCOCc3ccccc3)nn2)cc1,-36.6%
15,CCC(CC)C(=O)Nc1cc(C(=O)OC)ccc1C(=O)OC,-15.4%
16,Cc1cccc(NC(=O)Cn2nnc(C(=O)Nc3ccc(F)c(Cl)c3)c2N)c1,16.8%
17,CC(=O)Nc1ccccc1OCC(=O)NCC(F)(F)F,26.5%
18,CS(=O)(=O)N(CC(=O)NCCSCc1ccccc1)c1ccccc1F,2.39%
19,O=C(NCC1CCCO1)/C(=C\c1ccccc1)NC(=O)c1ccccc1 (centres unmarked),-8.85%
20,Cc1ccc(S(=O)(=O)NNC(=O)Nc2ccc(C)c(C)c2)c(C)c1,-24.9%
21,CC(C)Oc1ccc(C(=O)Nc2nnc(SCC(=O)N3CCOCC3)s2)cc1,1.12%
22,CCCCN(CCCC)Cc1ccc(C(=O)NNC(=O)Nc2ccc(F)cc2)o1,-30%
